The RNAGym collection of RNA variant scans (doi:10.1101/gad.245936.114)
Variants at the background level are over-represented here.

B1: tRNA (parent)
chain: CUCUCGGUAGCCAAGUUGGUUUAAGGCGCAAGACUUUAAUUUAUCACUACGAAAUCUUGAGAUCGGGCGUUCGACUCGCCCCCGGGAGAUUUUUUCCUCGAGCAA

Variants of: B1
Assay: nonsense suppression (GFP-seq) (ratio to wild type); higher = more function; SUP4oc tRNA, yeast GFP reporter sort-seq
Method in brief: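 To measure nonsense suppression, tRNA variants from a library carrying ~3% random mutations were integrated into the yeast genome alongside RFP and a GFP ochre reporter under galactose control. Growth took place in raffinose/galactose medium supplemented with 80 mg/L adenine, followed by sorting into GFP/RFP bins and Illumina sequencing of each bin (phred ≥30). For each variant with ≥100 reads and ≥30 cells, the bin median GFP/RFP values were weighted by its estimated cell share per bin and referenced to the unmutated parent tRNA.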

Variant | nonsense suppression
U76C G88C | ≤ 0.026
U76C G88U | ≤ 0.026
U76C G88U A89U | ≤ 0.026
U76G | ≤ 0.026
U76G C79A | ≤ 0.026
U76G C79G | ≤ 0.026
U76G C81A | ≤ 0.026
U76G C81G | ≤ 0.026
U76G C83A | ≤ 0.026
U76G G78A C83U | ≤ 0.026
U76G G84C | ≤ 0.026
U76G G85A | ≤ 0.026
U76G G85C | ≤ 0.026
U76G G85U G88A | ≤ 0.026
C77A | ≤ 0.026
C77A C79U | ≤ 0.026
C77A C80A | ≤ 0.026
C77A C81U | ≤ 0.026
C77A G86A | ≤ 0.026
C77A G86C | ≤ 0.026
C77G | ≤ 0.026
C77G A87G | ≤ 0.026
C77G C81G G85A | ≤ 0.026

Variant | nonsense suppression
C77G G78U | ≤ 0.026
C77G G84C | ≤ 0.026
C77G G84U | ≤ 0.026
C77U | ≤ 0.026
C77U C79U | ≤ 0.026
C77U C80U | ≤ 0.026
C77U C83A | ≤ 0.026
C77U G84U | ≤ 0.026
G78A | 0.775
G78A A87U | 0.032
G78A A89G | ≤ 0.026
G78A A89U | ≤ 0.026
G78A C82G | 0.0423
G78A C83A | ≤ 0.026
G78A G86A | ≤ 0.026
G78A G86C A89C | ≤ 0.026
G78C | 0.202
G78C C80U | ≤ 0.026
G78C C81A | ≤ 0.026
G78C G84U | 0.0271
G78C G88A | ≤ 0.026
G78U | 0.63
G78U C80G | ≤ 0.026

Variant | nonsense suppression
G78U C82G | ≤ 0.026
C79A C81A | ≤ 0.026
C79A C83A | ≤ 0.026
C79A G84A A87G G88A | ≤ 0.026
C79A G84C | ≤ 0.026
C79A G84U | ≤ 0.026
C79G A89C | ≤ 0.026
C79G C80A | ≤ 0.026
C79G C82G | ≤ 0.026
C79G C83G | ≤ 0.026
C79G G85C | ≤ 0.026
C79U C80A A89G | ≤ 0.026
C79U C80U C83G | ≤ 0.026
C79U C81U | ≤ 0.026
C80A | ≤ 0.026
C80A A89C | ≤ 0.026
C80A A89U | ≤ 0.026
C80A C81G | ≤ 0.026
C80A C81U | ≤ 0.026
C80A C82A | ≤ 0.026
C80A C82U | ≤ 0.026
C80A C83G | ≤ 0.026
C80A G85A | ≤ 0.026

Variant | nonsense suppression
C80A G88A | ≤ 0.026
C80G | ≤ 0.026
C80G G86U | ≤ 0.026
C80U | 0.697
C80U C82G | ≤ 0.026
C80U G85C | ≤ 0.026
C80U G88C | ≤ 0.026
C81A G84C | ≤ 0.026
C81A G85C | ≤ 0.026
C81A G86A G88C | ≤ 0.026
C81A G86U | ≤ 0.026
C81A G88A | ≤ 0.026
C81A G88C | ≤ 0.026
C81G A87C | ≤ 0.026
C81G A87G | 0.0415
C81G G84A | ≤ 0.026
C81G G88C | ≤ 0.026
C82A | ≤ 0.026
C82A G84U | ≤ 0.026
C82G | ≤ 0.026
C82G C83U | ≤ 0.026
C82G G84C G88U | ≤ 0.026
C82G G85A | ≤ 0.026

Variant | nonsense suppression
C82G G88A | ≤ 0.026
C82U | 1.05
C82U G86C | ≤ 0.026
C83A A87C | ≤ 0.026
C83A A89C | ≤ 0.026
C83A G84U | ≤ 0.026
C83G G84A | ≤ 0.026
C83G G85A | ≤ 0.026
C83G G86U | ≤ 0.026
C83U A87G | 0.0621
C83U G84U | 0.027
C83U G86A | ≤ 0.026
G84C A87G | ≤ 0.026
G84C G85A A87C | ≤ 0.026
G84C G86A | ≤ 0.026
G84U G88C | ≤ 0.026
G85A | 0.982
G85A G86C | ≤ 0.026
G85A G88C | ≤ 0.026
G85C | 0.163
G85C A87G | ≤ 0.026
G85C A89C | ≤ 0.026
G85U | 1.12

Variant | nonsense suppression
G85U A87C A89G | ≤ 0.026
G85U G86C | ≤ 0.026
G85U G88A | 0.0446
G86A A89G | ≤ 0.026
G86A A89U | ≤ 0.026
G86A G88U | ≤ 0.026
G86C A87G | 0.0881
G86C A87U | ≤ 0.026
G86U A87G | ≤ 0.026
G86U G88U | ≤ 0.026
A87C | ≤ 0.026
A87C G88C | ≤ 0.026
A87G | 1.16
A87U | ≤ 0.026
A87U G88A | ≤ 0.026
G88A | ≤ 0.026
G88A A89G | ≤ 0.026
G88C | 0.028
G88U | ≤ 0.026
G88U A89U | ≤ 0.026
A89C | ≤ 0.026
A89G | ≤ 0.026
A89U | ≤ 0.026
